The IC50 comes from the fitted curve, where viability falls to half of the control; fits outside the tested doses are given as limits. AUC, from the same fit, is the share of area under the viability curve across the 256-fold dose range; it is 1 without any effect and falls as sensitivity rises. For part of these data: Any top dose called inferred was calculated from the reported fits.
Columns and labels:
Test in all cases: Viability of human cancer cell lines after 72 h of drug (GDSC screen)
IPA-3 = compound: Oc1ccc2ccccc2c1SSc1c(O)ccc2ccccc12 [IPA-3]; conditions: top dose 32 µM; top dose inferred
Method: (§1)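 Human cancer cell lines in 384-well plates, medium with 10% serum, drug for 72 h over a 256-fold dose range (nine 2-fold or five 4-fold steps up to the top dose). Adherent lines were fixed and stained with the nucleic acid dye Syto60, suspension lines read with resazurin; signal relative to control wells, capped at 0 and 100%. One two-parameter sigmoid per drug and line, fitted in a mixed model over all curves with the slope shared within a line.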

CI-1040 = compound: O=C(NOCC1CC1)c1ccc(F)c(F)c1Nc1ccc(I)cc1Cl [CI-1040]; conditions: top dose 10 µM; top dose inferred
Method: as §1

ZG-10 = compound: CN(C)C/C=C/C(=O)Nc1ccc(C(=O)Nc2cccc(Nc3nccc(-c4cccnc4)n3)c2)cc1 [ZG-10]; conditions: top dose 10 µM; top dose inferred
Method: as §1

Temozolomide = compound: Cn1nnc2c(C(N)=O)ncn2c1=O [Temozolomide]; conditions: top dose 30 µM
Method: as §1

XL-880 = compound: COc1cc2c(Oc3ccc(NC(=O)C4(C(=O)Nc5ccc(F)cc5)CC4)cc3F)ccnc2cc1OCCCN1CCOCC1 [XL-880]; conditions: top dose 5.12 µM; top dose inferred
Method: as §1

Tubastatin A = compound: CN1CCc2c(c3ccccc3n2Cc2ccc(C(=O)NO)cc2)C1 [Tubastatin A]; conditions: top dose 20 µM
Method: as §1

Cell Line	AUC (IPA-3)	IC50 (IPA-3)	AUC (CI-1040)	IC50 (CI-1040)	AUC (ZG-10)	IC50 (ZG-10)	AUC (Temozolomide)	IC50 (Temozolomide)	AUC (XL-880)	IC50 (XL-880)	AUC (Tubastatin A)	IC50 (Tubastatin A)
SJRH30 (rhabdomyosarcoma, adherent)	0.815	18.3 µM	0.985	> 10 µM	0.614	1.3 µM	0.981	> 30 µM	0.838	3.63 µM	0.982	> 20 µM
639-V (bladder, adherent)	0.686	6.06 µM	0.734	2.56 µM	0.807	4.23 µM	0.991	> 30 µM	0.717	1.18 µM	0.989	> 20 µM
SBC-3 (small cell lung carcinoma, adherent)	0.785	12.4 µM	0.928	> 10 µM	0.657	1.63 µM	0.988	> 30 µM	0.367	0.142 µM	0.673	3.61 µM
SW1573 (lung adenocarcinoma, adherent)	0.98	> 32 µM	0.873	> 10 µM	0.715	3.18 µM	0.975	> 30 µM	0.838	> 5.12 µM	0.98	> 20 µM
TYK-nu (ovary, adherent)	0.973	> 32 µM	0.524	0.73 µM	0.729	2.95 µM	0.931	> 30 µM	0.814	3.03 µM	0.952	> 20 µM
EFM-192A (breast, adherent)	0.773	13.9 µM	0.955	> 10 µM	0.711	2.65 µM	0.979	> 30 µM	0.91	> 5.12 µM	0.937	> 20 µM
NCI-H1688 (small cell lung carcinoma, adherent)	0.98	> 32 µM	0.981	> 10 µM	0.892	> 10 µM	0.984	> 30 µM	0.609	0.661 µM	0.97	> 20 µM
CAL-27 (head and neck, adherent)	0.838	22.2 µM	0.561	0.922 µM	0.637	1.5 µM	0.961	> 30 µM	0.755	1.76 µM	0.944	> 20 µM
WM1552C (melanoma, adherent)	0.78	13.3 µM	0.892	> 10 µM	0.898	> 10 µM	0.986	> 30 µM	0.85	3.91 µM	0.974	> 20 µM
PC-14 (lung adenocarcinoma, adherent)	0.872	25 µM	0.911	> 10 µM	0.812	4.66 µM	0.988	> 30 µM	0.546	0.421 µM	0.928	> 20 µM
SW1271 (small cell lung carcinoma, adherent)	0.738	10.8 µM	0.71	2.7 µM	0.838	8.28 µM	0.982	> 30 µM	0.603	0.641 µM	0.978	> 20 µM
RT4 (bladder, adherent)	0.98	> 32 µM	0.973	> 10 µM	0.81	5.59 µM	0.986	> 30 µM	0.55	0.442 µM	0.892	> 20 µM
Capan-2 (pancreas, adherent)	0.937	> 32 µM	0.816	7.1 µM	0.799	6 µM	0.983	> 30 µM	0.656	0.954 µM	0.978	> 20 µM
NCI-H1944 (lung adenocarcinoma, adherent)	0.928	> 32 µM	0.827	6.68 µM	0.848	8.18 µM	0.984	> 30 µM	0.597	0.602 µM	0.974	> 20 µM
DoTc2-4510 (cervix, adherent)	0.726	8.42 µM	0.935	> 10 µM	0.71	2.36 µM	0.986	> 30 µM	0.753	1.63 µM	0.983	> 20 µM
HCC1954 (breast, adherent)	0.837	26.7 µM	0.919	> 10 µM	0.831	7.85 µM	0.981	> 30 µM	0.975	> 5.12 µM	0.974	> 20 µM
NCI-H441 (lung adenocarcinoma, adherent)	0.831	> 32 µM	0.89	> 10 µM	0.799	7.31 µM	0.926	> 30 µM	0.823	4.84 µM	0.974	> 20 µM
OVISE (ovary, adherent)	0.964	> 32 µM	0.734	3.7 µM	0.856	> 10 µM	0.967	> 30 µM	0.682	1.23 µM	0.71	6.01 µM
NCI-H841 (small cell lung carcinoma, adherent)	0.975	> 32 µM	0.906	> 10 µM	0.831	6.38 µM	0.987	> 30 µM	0.764	1.86 µM	0.988	> 20 µM
CHSA0108 (chondrosarcoma, adherent)	0.96	> 32 µM	0.876	> 10 µM	0.629	1.5 µM	0.981	> 30 µM	0.641	0.836 µM	0.867	> 20 µM
WM278 (melanoma, adherent)	0.984	> 32 µM	0.672	2.01 µM	0.669	1.98 µM	0.982	> 30 µM	0.59	0.582 µM	0.981	> 20 µM
HCC-56 (large intestine, adherent)	0.964	> 32 µM	0.674	1.94 µM	0.917	> 10 µM	0.986	> 30 µM	0.71	1.28 µM	0.965	> 20 µM

— the supplement of paper PMC4967469
